# Experimental data published in publication PMC4336329 (PLoS ONE, 2015).
# The whole screen tested about 310,000 compounds, of which about 14,000 (4.5%) showed an effect of 50% or more. Effects have a minus sign here. Some of the results follow.
# Target: human ether-à-go-go-related gene (hERG) potassium channel (human, UniProt Q12809)
# Assay: primary screen, population patch clamp on CHO cells stably expressing hERG
# 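Note: peak tail current of the secondary pulse compared with the same well before compound.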
# Chain of human ether-à-go-go-related gene (hERG) potassium channel (Q12809 whole entry, looked up): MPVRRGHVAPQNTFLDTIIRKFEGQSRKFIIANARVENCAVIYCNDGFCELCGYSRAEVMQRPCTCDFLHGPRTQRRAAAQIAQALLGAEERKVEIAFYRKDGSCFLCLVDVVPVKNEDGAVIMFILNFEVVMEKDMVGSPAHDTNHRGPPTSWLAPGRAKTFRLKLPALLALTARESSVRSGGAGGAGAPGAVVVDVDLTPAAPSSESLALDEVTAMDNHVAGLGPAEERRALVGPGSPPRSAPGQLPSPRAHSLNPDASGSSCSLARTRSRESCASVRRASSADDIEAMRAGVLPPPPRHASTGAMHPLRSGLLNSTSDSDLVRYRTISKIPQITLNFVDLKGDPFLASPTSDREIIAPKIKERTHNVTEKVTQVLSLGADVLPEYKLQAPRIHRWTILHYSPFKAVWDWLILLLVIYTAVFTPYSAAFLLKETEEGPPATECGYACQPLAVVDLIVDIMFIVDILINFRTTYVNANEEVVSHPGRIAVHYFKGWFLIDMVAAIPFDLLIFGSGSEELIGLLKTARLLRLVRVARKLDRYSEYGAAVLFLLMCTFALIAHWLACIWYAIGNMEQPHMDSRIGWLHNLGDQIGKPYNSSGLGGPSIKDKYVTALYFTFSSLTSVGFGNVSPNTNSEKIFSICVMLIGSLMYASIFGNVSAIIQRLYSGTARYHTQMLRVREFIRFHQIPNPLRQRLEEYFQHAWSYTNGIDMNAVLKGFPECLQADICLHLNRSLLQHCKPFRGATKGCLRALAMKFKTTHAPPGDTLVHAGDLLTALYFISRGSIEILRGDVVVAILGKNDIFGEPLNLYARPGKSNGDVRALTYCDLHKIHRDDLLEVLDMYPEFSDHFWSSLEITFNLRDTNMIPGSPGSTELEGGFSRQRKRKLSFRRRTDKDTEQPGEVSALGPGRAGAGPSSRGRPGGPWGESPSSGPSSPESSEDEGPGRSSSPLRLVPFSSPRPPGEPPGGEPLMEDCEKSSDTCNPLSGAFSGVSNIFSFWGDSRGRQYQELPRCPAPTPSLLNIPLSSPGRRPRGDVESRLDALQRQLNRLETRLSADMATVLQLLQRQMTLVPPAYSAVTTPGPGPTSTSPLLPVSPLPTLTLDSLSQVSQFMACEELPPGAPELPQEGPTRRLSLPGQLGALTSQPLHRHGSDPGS
row,SMILES,"hERG current change (%, negative = inhibition) at 10uM"
1,CC(=O)c1cccc(OCC(=O)c2cc(C)n(-c3cc(C)on3)c2C)c1,-13.8%
2,CCOP(=O)(C#CC(C)(C)C)C1(O)CCCCC1 (centres unmarked),-7.18%
3,Cc1cc(NC(=O)CCC(=O)N(c2ccc(F)cc2)C(C(=O)NC2CCCC2)c2ccc(C)o2)no1 (centres unmarked),21.2%
4,C/C(=N\Nc1nc(C)cc(C)n1)c1ccc(C)o1,19.9%
5,CSCC(C)N1CCC(n2nccc2NC(=O)c2ccccc2C)CC1 (centres unmarked),-16.6%
6,COC(=O)C1CCN(S(=O)(=O)CCNC(=O)c2ccc(F)cc2)CC1,-17.6%
7,Cc1ccc(CNC(=O)c2ccc(N(C)C)cc2)cc1,1.61%
8,CC1CCc2c(sc3nc(CN4CCOCC4)nc(N4CCc5ccccc5C4)c23)C1 (centres unmarked),-8.23%
9,COc1ccc(/C=C2\CCCC3C2=NC(=S)NC3c2ccc(OC)cc2)cc1 (centres unmarked),-0.449%
10,COC(=O)c1ccc(/C=N/N2C(C)CCCC2C)cc1 (centres unmarked),35.7%
11,O=C(Nc1ccc(-n2cccn2)cc1)C1CCN(Cc2ccccn2)CC1,-16.7%
12,FC(F)(F)c1cc(Oc2ccccc2Cl)nc(-c2ccccn2)n1,-1.49%
13,Cc1cccc(NC(=O)C2CC(O)CN2C(=O)Oc2ccccc2)c1 (centres unmarked),26.3%
14,O=C(Cc1ccccc1)O/N=C1\CCCc2ccccc21,21.6%
15,COc1ccc(CCC(=O)NCCS(=O)(=O)N2CCN(c3ccccc3)CC2)cc1,-36.6%
16,COC(=O)c1c(S(N)(=O)=O)c2ccccc2n1C,3.31%
17,O=C(CNC(=O)c1ccc(Cl)cc1)c1ccccc1,-9.6%
18,CN1CCC(=NNc2ncnc3sc4c(c23)CCCC4)CC1,-0.962%
19,CN(CCCOc1ccccc1F)Cc1ccccc1.O=C(O)C(=O)O,-57.3%
20,CN(C(=O)C1CCCN(c2ncnc3c2nc2n3CCCCC2)C1)c1cccc(Cl)c1 (centres unmarked),-45.9%
21,CCCOC(=O)c1ccc(Oc2c(-c3ccc(OC)cc3O)n[nH]c2C)cc1,7.67%
22,COc1ccc(NC(C)=[N+](C)CCNS(=O)(=O)c2ccc(Cl)cc2)cc1.[I-],-70.2%

row,SMILES,"hERG current change (%, negative = inhibition) at 10uM"
1,CCOc1ccc(N2C(=O)C(Cl)=C(N3CCOCC3)C2=O)cc1,16.3%
2,Cc1c(NS(=O)(=O)c2ccc(N3CCCCC3)c([N+](=O)[O-])c2)c(=O)n(-c2ccccc2)n1C,3.37%
3,CC(C)C12CN3CCN(CC(C3)/C1=N\NC(=O)Nc1ccccc1)C2,-16.1%
4,CCN(c1ccccc1)S(=O)(=O)c1ccc(Cl)c(C(=O)NCC2CCCO2)c1 (centres unmarked),-10.3%
5,COc1ccc(-c2nnc(SCC(=O)N/N=C/c3ccccc3C(=O)O)n2-c2ccccc2)cc1,30.2%
6,COc1ccc(C(C(=O)NC2CCCC2)N(C(=O)c2snc(C(N)=O)c2N)c2ccccc2OC)cc1OC (centres unmarked),-1%
7,COC(=O)c1cc(NC2c3ccccc3C(=O)N2CCN2CCOCC2)cc(C(=O)OC)c1 (centres unmarked),-12.1%
8,COC(=O)C1(Cc2ccc(O)cc2)OC(=O)C(O)=C1c1ccc(O)cc1 (centres unmarked),1.14%
9,C/C=C/Cn1c(Br)nc2c1c(=O)n(C)c(=O)n2C,-4.98%
10,CC1CCCC(C)N1C(=O)CSc1nnc(NC(=O)Cc2cccs2)s1 (centres unmarked),19.4%
11,CC1Sc2ccc(S(=O)(=O)NCc3ccccc3)cc2NC1=O (centres unmarked),1.74%
12,CCn1c(=O)c([N+](=O)[O-])c(Cl)c2ccccc21,25.3%
13,Cc1ccc(Cl)cc1NC(=O)c1ccc(NC(=O)CCC(=O)O)cc1,5.63%
14,CCOC(=O)c1ccc(NC(=O)C(=O)NCCc2ccc(OC)cc2)cc1,22.7%
15,CCCc1nnc(NC(=O)c2c(O)c3cccc4c3n(c2=O)CCC4)s1,-2.48%
16,C=CCc1cccc(/C=C/c2cc(=O)c3ccccc3[nH]2)c1O,14.6%
17,Cc1ccc(C)c(NC(=O)CN(C)C(=O)Cc2ccc(Cl)cc2Cl)c1,13.3%
18,COc1ccc(NC(=O)CSc2nc3ccccc3c(=O)n2Cc2cccs2)c(OC)c1,-6.23%
19,O=c1[nH]c2cc3c(cc2cc1CN(CC1CCCO1)S(=O)(=O)c1ccccc1)OCCO3 (centres unmarked),0.0167%
20,COC(=O)c1sc(NC(=O)c2c(C)noc2C)nc1C,-35.7%
21,Cc1ccc(NC(=O)Nc2cccc(F)c2)nc1,27.2%
22,CSc1ccccc1NC(=O)c1ccc(Cl)s1,-17.2%

row,SMILES,"hERG current change (%, negative = inhibition) at 10uM"
1,O=C(O)c1cc(-c2ccccc2Cl)n(-c2ccccc2)n1,15.4%
2,CCCCOC(=O)C1=C(N)N2C(=O)C(C)SC2=C(C(=O)OCC)C1c1ccc(O)c(OC)c1 (centres unmarked),4.52%
3,CC(=O)c1c(-c2ccccc2)c2cc(Cl)ccc2[nH]c1=O,9.33%
4,COc1ccccc1-n1nnnc1S(=O)(=O)Cc1ccc(Cl)cc1,-7.39%
5,C=CCN1C(=O)C(CC(=O)Nc2ccc(C)cc2)SC1=Nc1c(C)n(C)n(-c2ccccc2)c1=O (centres unmarked),2.26%
6,COC(=O)[C@@]12CCCCN1[C@H](c1ccc(-c3cccc(Cl)c3)cc1)[C@H]1C(=O)N(C)C(=O)[C@H]12.O=C(O)C(F)(F)F,5.31%
7,CCc1cc2ccc(C)cc2nc1SCC(=O)Nc1cc(OC)c(OC)cc1C(=O)O,5.32%
8,CCOC(=O)Nc1ccc(N2CCOCC2)c(S(=O)(=O)N2CCOCC2)c1,-14.5%
9,Cc1cc(C)c(NS(=O)(=O)c2ccc3c(c2)NC(=O)CCS3)c(C)c1,2.99%
10,CCCn1c(N)c(N(CCOC)C(=O)/C=C/c2ccc(C(=O)OC)cc2)c(=O)[nH]c1=O,32%
11,COc1ccc(CNC(=O)c2ccc(NC(=O)C3=CSCCO3)cc2)cc1,20.6%
12,CCCC(=O)N(Cc1cccnc1)c1nc2c(OC)ccc(Cl)c2s1,5.34%
13,CCn1ncc(CN2CCCC(CNC(=O)c3ccc(F)cc3)C2)c1C (centres unmarked),-1.04%
14,N#C/C(=C\c1cccs1)Sc1nc2ccccc2s1,6.22%
15,CCOC(=O)c1c(C)n(C)c2ccc(O)c(CN(CC)CC)c12.Cl,-20%
16,C=CCn1c(SCC(=O)NC)nnc1C12CC3CC(CC(C3)C1)C2,9.16%
17,NS(=O)(=O)c1cccnc1Nc1c(Cl)cccc1Cl,10.6%
18,Cc1nnc(Cn2cnc3c2c(=O)n(C)c(=O)n3C)o1,23.4%
19,CN(CC#CCC(c1ccccc1)c1ccccc1)C(C)(C)C.Cl,-83.3%
20,Cc1cc(=O)[nH]c(SCC(=O)Nc2ccc(S(=O)(=O)N3CCCCC3)cc2)n1,-6.37%
21,c1ccc(-c2nnc(CSc3ccc4c(c3)OCCO4)o2)cc1,-5.47%
22,O=C(Nc1ccc(Cl)cc1C(F)(F)F)c1ccccc1Cl,0.354%

row,SMILES,"hERG current change (%, negative = inhibition) at 10uM"
1,Cc1occc1C(=O)Nc1nnc(C2CCCCC2)s1,-1.61%
2,CCOC(=O)N1CCN(c2cc3nccnc3cc2F)CC1,-12.5%
3,CSCCC(NC(=O)COc1ccccc1)C(=O)N1CCN(c2ccccc2O)CC1 (centres unmarked),-46.8%
4,Cc1ccc(C(c2nnnn2CS(=O)(=O)c2ccc(C)cc2)N2CCC(C)CC2)cc1 (centres unmarked),8.46%
5,COc1ccc(/C=N/Nc2cc(N(C)C)nc(N(C)C)n2)cc1,-28.5%
6,CC(=O)Oc1ccc2occ(-c3ccccc3)c2c1,20%
7,Cn1c(SCc2cc(=O)[nH]c3ccccc23)nnc1-c1ccc(Br)cc1,-48.6%
8,O=C(Nc1nc(-c2ccncc2)cs1)C1COc2ccccc2O1 (centres unmarked),-10.7%
9,Cc1ccc(-n2nc3c(N4CCC(C(=O)NCCc5ccco5)CC4)nnc(C)c3c2C)cc1,-15.6%
10,COc1ccc(/C=C(\NC(=O)c2cccs2)C(=O)Nc2ccccc2C)cc1OC,-8.59%
11,O=C(O)CCCCCn1c(SCC(=O)N2CCCC2)nc2ccsc2c1=O,16.9%
12,O=C(NC1CCN(Cc2ccccc2)CC1)C1CCN(S(=O)(=O)c2cccc3cccnc23)CC1,-9.42%
13,COc1cc(CC(=O)OCC(=O)N2CCCCC2)cc(OC)c1OC,16%
14,O=C(CSc1nnc(CNC(=O)c2cccs2)o1)Nc1ccccc1F,5.64%
15,C[C@@H]1O[C@@H](Oc2c(-c3cc(O)c(O)c(O)c3)oc3cc(O)cc(O)c3c2=O)[C@H](O)[C@H](O)[C@H]1O,4%
16,COc1ccccc1NC(=O)CCc1c(C)[nH]c(=O)c(C#N)c1C,-12.7%
17,COc1cc(/C=N/NC(=O)c2cc(C)oc2C)ccc1OCc1ccccc1,-11.5%
18,CC(=O)c1cccc(NS(=O)(=O)c2ccc(N/C=C\C(=O)c3ccc(C)cc3)cc2)c1,4.74%
19,COc1ccc(NC(=O)CCC(=O)c2cccs2)cc1S(=O)(=O)Nc1ccccc1Cl,-5.65%
20,COc1ccc(NC(=O)CN(C)C(=O)c2c(-c3c(F)cccc3Cl)noc2C)cc1,-16.2%
